Reference: PubChem BioAssay AID686979 (National Center for Advancing Translational Sciences (NCATS), 2013)
Several values for one entry are separate records, joined by “and”; a condition that tells them apart may be missing. Equal values may be shown once. Out of some 420,000 compounds screened, about 50,000 (12%) were called active. The inconclusive results got no clear call from the source; some entries with a clear call stand among them for comparison. The call rests on the fitted dose curve; in most records, active means well fitted inhibition curve with a large enough effect; inconclusive means small, poorly fitted or top-dose-only effect; inactive means flat fitted curve, though single readings scatter. Potencies beside an inconclusive call are fits to weak or partial responses and may not hold up.

test: qHTS for Inhibitors of human tyrosyl-DNA phosphodiesterase 1 (TDP1): qHTS in cells in presence of CPT; conditions: chicken DT40 Tdp1-/-;hTDP1 cells + 20 nM CPT, ATP luminescence, 48 h; activity change, negative = growth inhibition: at 46.2 µM (top of the series) unless noted; further: nearly all actives have a fitted effect of over 55% in size
In short: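 Chicken DT40 Tdp1-/- cells stably complemented with human TDP1 were seeded at 400 cells/well in medium containing 20 nM camptothecin, exposed to pin-transferred compounds, and grown at 37 °C for at least 48 hr. Viability was read as ATP luminescence.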
On the % scale 0 is the no-effect control and ±100 the full control effect; potency means the concentration at half of the fitted maximal effect; tags describe the fitted curve by direction and shape.

Structure (SMILES) | Potency | activity change, negative = growth inhibition
O=C(Nc1cc(S(=O)(=O)N2CCOCC2)ccc1N1CCOCC1)c1ccc([N+](=O)[O-])s1 | active: 11.6 µM | 
COc1ccc(Cn2nnnc2CN(CCCN2CCOCC2)Cc2cc3cc(OC)ccc3[nH]c2=O)cc1 | inconclusive: 9.2 µM [inhibitor, single point] | 
CCC(C)Cn1c(COc2ccc(OC)cc2)nc2ccccc21 (stereo not drawn) | inconclusive: 18.4 µM [inhibitor, single point] | 
CCCCCCCCCCCCCCCCOC[C@H](COP(=O)([O-])OCC[N+](C)(C)C)OC(=O)NC | inconclusive: 3.66 µM [inhibitor, single point] | 
CN(CC(=O)NCc1ccccc1)Cc1ccc(Cl)cc1 | inactive | 
COc1ccccc1N1CCN(CC(=O)c2c[nH]c3ccccc23)CC1 | inconclusive: 25.9 µM [inhibitor, single point] | 
COc1ccc(S(=O)(=O)Nc2cc(C(=O)NC(C)C)ccc2N2CCOCC2)cc1 | inconclusive: 10.3 µM [inhibitor, partial curve] | 
Cc1nc2c(C#N)c[nH]n2c(=O)c1CCO | inconclusive: 29.1 µM [inhibitor, single point] | 
CC1(C(=O)NS(=O)(=O)c2cccs2)CCN1C(=O)c1cccc(F)c1 (stereo not drawn) | inactive | 
O=C(c1ccco1)N1CCC2(CC1)CN(C(c1ccccc1)c1ccccc1)C2 | inconclusive: 23.1 µM [inhibitor, single point] | 
O=C(CCC(=O)N1CC2CCCN2c2ccccc21)NCc1ccccc1F (stereo not drawn) | active: 11.6 µM | 
COc1ccccc1NS(=O)(=O)c1cccc(NC(=O)Nc2cccc(Cl)c2)c1 | active: 20.6 µM | 
CC1CN(C(=O)CSc2nc(-c3ccccc3)cs2)CC(C)O1 (stereo not drawn) | inconclusive: 25.9 µM [inhibitor, single point] | 
Cc1ccccc1NC(=S)N(CCc1c(C)[nH]c2ccc(F)cc12)Cc1ccncc1 | inactive | 
CN1CCN(C(=O)c2cc(-c3cccc(Cl)c3)on2)CC1 | inactive | 
COc1ccc(-c2cc(C(=O)Nc3ccc(C#N)cc3)no2)cc1 | inactive | 
Cc1cccc(C(=O)Nc2nnc(S(=O)(=O)N3CCC(C)CC3)s2)c1 | inactive and inconclusive: 14.6 µM [inhibitor, partial curve] | 
CCOC(=O)CC(NC(=O)c1cc2cc(OC)ccc2oc1=O)c1ccc(OC)cc1 (stereo not drawn) |  | inconclusive: -27% [inhibitor]
Cc1nn(CC2CC2)c(=O)n1-c1ccc(F)cc1 | inactive | 
CC(=O)Oc1ccc(Cn2c(C)c(C(=O)NCc3ccc4c(c3)OCCO4)sc2=O)cc1 | inconclusive: 25.9 µM [inhibitor, single point] | 
COc1ccc(N/C(=C2\CCCC2=O)C2CCCCC2)cc1 | inconclusive: 20.6 µM [inhibitor, single point] | 
Clc1ccc(Cl)c2sc(N3CCCC3)nc12 | inactive | 
O=C(OC12CC3CC(CC(C3)C1)C2)c1ccc(NCc2cc(O)ccc2O)cc1 | active: 2.06 µM | 
COc1ccc(S(=O)(=O)N2CCN(C(=O)c3cccc(Cl)c3)CC2)cc1 |  | inconclusive: -32.2% [inhibitor]
Cc1[nH]nc2c1C(=O)CCC2 | active: 23.1 µM | 

Structure (SMILES) | Potency | activity change, negative = growth inhibition
CCOc1ccccc1-c1ccc2nccn2c1 | inconclusive: 16.4 µM [inhibitor, single point] | 
CCOc1ccc(S(=O)(=O)N2CCN(C(=O)c3sccc3C)CC2)cc1 | inconclusive: 16.4 µM [inhibitor, single point] | 
O=C(NCc1ccccc1Cl)[C@H]1CCCN1C(=O)[C@H]1CCCN1C(=O)c1ccccc1 | inactive | 
COC(=O)c1ccc(C)c(NS(=O)(=O)c2cn(C)nc2C)c1 | inactive | 
CC1=C(C(=O)N(C)C)CC(CC(=O)NC2CC2)C(=O)N1CCC1=CCCCC1 (stereo not drawn) | inactive | 
Oc1c(Br)cc(Br)cc1/C=N/NC(=S)N[C@H]1CC2C=CC1C2 (stereo partly drawn) | inconclusive: 20.6 µM [inhibitor, single point] | 
COc1cc(/C=C/C(=O)OCC(=O)N2CCN(S(=O)(=O)c3ccc(C)cc3C)CC2)cc(Cl)c1OC | inconclusive: 23.1 µM [inhibitor, single point] | 
OCCn1c(-c2ccc(F)cc2)csc1=Nc1ccccc1 | inconclusive: 23.1 µM [inhibitor, single point] | 
CCOc1ccc(S(=O)(=O)N2CCN(C(=O)c3cc(-c4ccccc4)nn3-c3ccccc3)CC2)cc1 | inconclusive: 10.3 µM [inhibitor, partial curve] | 
Cc1cccc(C)c1OCC(=O)Nc1cccc(NC(=O)c2ccco2)c1 | inconclusive: 29.1 µM [inhibitor, single point] | 
CCNc1c(NS(=O)(=O)c2ccc(OC)c(Cl)c2)c(=O)oc2ccccc12 | inconclusive: 29.1 µM [inhibitor, single point] | 
NS(=O)(=O)c1ccc(CCNS(=O)(=O)c2ccc(Cl)nc2)cc1 | inactive | 
COc1ccc(C(=O)N(Cc2ccco2)Cc2cccs2)c(O)c1 | inactive | 
CC(=O)c1cccc(NC(=O)c2ccc3c(c2)CCCC3)c1 | inconclusive: 16.4 µM [inhibitor, single point] | 
Cc1ccc(NC(=O)C(c2ccccc2)c2ccccc2)nc1 | active: 20.6 µM | 
COC(=O)CCC(=O)N1CCCC(N2CCN(c3cccc(C(F)(F)F)c3)CC2)C1 (stereo not drawn) | inconclusive: 29.1 µM [inhibitor, single point] | 
COCC(=O)N/N=C/c1c(C)[nH]n(-c2ccccc2)c1=O | active: 18.4 µM | 
CCOC(=O)c1cnc(SCC(=O)Nc2ccc(N3CCOCC3)c(Cl)c2)nc1N | inconclusive: 35.5 µM [inhibitor, single point] | 
O=C(CSc1nc2ccccc2o1)N1N=C(c2cccs2)CC1c1ccc(F)cc1 (stereo not drawn) | inconclusive: 29.1 µM [inhibitor, single point] | 
CCOC(=O)Cc1csc(NC(=O)C(CC(C)C)NC(=O)C2CCCCC2)n1 (stereo not drawn) | inactive | 
CC1CC(C)CN(S(=O)(=O)c2ccc(C(=O)N(c3ccccn3)C3CCCCC3)cc2)C1 (stereo not drawn) | inconclusive: 14.6 µM [inhibitor, single point] | 
Cc1ccc(CN(C)C(=O)c2cc(COc3ccc(F)cc3Cl)on2)o1 | inconclusive: 13 µM [inhibitor, partial curve] | 
COc1ccc(NC(=S)N=Nc2c(O)[nH]c3ccccc23)cc1 | active: 8.2 µM | 
CC1=C(C(=O)N2CCOCC2)CC(CC(=O)NCc2cccs2)C(=O)N1Cc1ccccc1 (stereo not drawn) | inactive | 
Nc1nonc1-n1nnc(C(=O)N/N=C/c2cccc(Cl)c2Cl)c1CN1CCCC1 | active: 8.2 µM | 

Structure (SMILES) | Potency | activity change, negative = growth inhibition
CCOC(=O)c1c(C)oc2ncnc(Nc3ccc(CC)cc3)c12 | inactive | 
CCC(=O)N1CCc2cc(S(=O)(=O)NCCC(=O)NC(C)c3ccccc3)ccc21 (stereo not drawn) |  | inconclusive: -31% [inhibitor]
C[C@H]1CN([C@@H](C)CO)S(=O)(=O)c2ccc(Br)cc2O[C@@H]1CN(C)Cc1ccccc1 | inconclusive: 29.1 µM [inhibitor, single point] | 
CN(C)c1ccc(C=NNC(=O)c2cccnc2)cc1 | inactive | 
COc1ccc(Cc2c(-c3ccc(C)cc3)nc3c(C)cc(Br)cn23)c(C)c1 | inconclusive: 18.4 µM [inhibitor, single point] | 
COc1ccc(S(=O)(=O)N(C)C[C@H]2OCc3cnnn3CCCC(=O)N([C@H](C)CO)C[C@@H]2C)cc1 | inactive | 
COc1cc(N)c(Cl)cc1C(=O)N[C@H]1CCN(CCCOc2ccc(F)cc2)C[C@@H]1OC | inactive | 
CC(C)Nc1ccc(C(CC(N)=O)NC(=O)Cc2ccc(Cl)cc2)cc1[N+](=O)[O-] (stereo not drawn) | inconclusive: 29.1 µM [inhibitor, single point] | 
CC1(C)CC(=O)C2=C(C1)OC(N)=C(C#N)C2c1cn(-c2ccccc2)nc1-c1ccc(F)cc1 (stereo not drawn) | active: 14.6 µM | 
O=C(Nc1cc(C(F)(F)F)ccc1-n1cncn1)c1cn2ccccc2n1 | inconclusive: 16.4 µM [inhibitor, partial curve] | 
Nc1nc(NCCc2ccccc2)nc(NCc2ccccc2)c1[N+](=O)[O-] | inconclusive: 18.4 µM [inhibitor, single point] | 
Cc1cc(C)cc(OC(=O)c2cc(-c3ccc4c(c3)OCCO4)on2)c1 | inactive | 
CCNC(=S)Nc1ccc2c(c1)c(=O)n(C)n2Cc1cccc(C(F)(F)F)c1 | inconclusive: 25.9 µM [inhibitor, single point] | 
Cc1cc2n(n1)SC(Nc1ccc(F)cc1)N2 (stereo not drawn) |  | inconclusive: -31.4% [inhibitor]
CC1CCC2(CC1)NC(=O)N(CC(=O)Nc1cccc(S(=O)(=O)N(C)c3ccccc3)c1)C2=O (stereo not drawn) | active: 18.4 µM | 
Cc1cccc(N=N/C(=C\O)C(=O)c2cccs2)c1 | inconclusive: 20.6 µM [inhibitor, single point] | 
CCOC(=O)c1ccc(NC(=O)Nc2ccon2)cc1 | active: 0.0073 µM | 
CC(C)CC(=O)NS(=O)(=O)c1ccc(NS(C)(=O)=O)cc1 | inactive | 
CCCCC(=O)Nc1ccc2c3c(cccc13)CC2 | inconclusive: 29.1 µM [inhibitor, single point] | 
CCC(CO)Oc1cc(NCc2cccc(O)c2)c2ncn(C(C)C)c2c1 (stereo not drawn) | active: 23.1 µM | 
Cc1cc(NC(=O)Cc2ccccc2[N+](=O)[O-])no1 | inconclusive: 29.1 µM [inhibitor, single point] | 
CC(=O)c1ccc(NC(=O)C(Cc2ccccc2)NS(=O)(=O)c2ccc3c(c2)CCC(=O)N3)cc1 (stereo not drawn) | inactive | 
Cc1cc(OCCCC(=O)N2CCCCC2)cc(C)c1Cl | inconclusive: 13 µM [inhibitor, single point] | 
